This passage reports self-cleavage results from the RNAGym collection of RNA variant scans (doi:10.1093/nar/gkz1192).

B1: CPEB3 Ribozyme (parent)
chain: UAACAGGGGGCCACAGCAGAAGCGUUCACGUCGCAGCCCCUGUCAGAUUCUGGUGAAUCUGCGAAUUCUGCUGUAUAUCUC

Read counts are not given, so values of variants with three or more changes are uncertain.

The variants in this series derive from B1. The series can be described thus: self-cleavage, relative activity (ratio to wild type); higher = more cleavage; in vitro, sequencing. Summed up: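 Libraries of CPEB3 self-cleaving ribozyme mutants came from rounds of error-prone PCR and carried barcodes, which DNA sequencing matched to variants. In vitro transcription used T7 RNA polymerase at 37°C for 5 hours, with a further 15 min in DNase I before EDTA stopped the reaction; the ribozymes cleaved during both steps. The RNA was reverse transcribed with template switching and sequenced on Illumina. Relative activity is the cleaved/total read fraction of a variant divided by that of the unmutated ribozyme, averaged over three batches with at least 5 reads.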
Take UAACAGGGGGCCACAGCAGAAGCGUUCACAUCGCAGCCCCUGUCAGAAUCUGGUGAAUCUCCGAAUUCUGCGGUAUAUCUC: the self-cleavage is 0.15.
The same measure for UAACAGGGGGCCACAGCAGAAGCGUUCACGACGCAGCCCCUGUCAGUUUCUGGUGAACCUGCGAAUUCUGCUGUAUAUCUC: 0.07.
The same measure for UAACAGGGGGCCACAGCAGAAGCGUUCACCUCGCAGCCCCUGUCUGAUUCUGGUGAAUCUGCGAAUUCCGCUGUAUAUCUC: 0.15; for UAACAGGGGGCCACAGCAGAAGCGUUCACGAAGCGGCCCCUGUCAGAUUCUGGUGAAUCUGCGGAUUCUGCUGUAUAUCUC: 0.4; for UAACAGGGGGCCACAGCAGAAGCGUUCACCUCGCAGCCCCUGUCAGAUUCUGGUGUAUCUGCGAAUUCCGCUGUAUAUCUC: 0.12.
The figure for UAACAGGGGGCCACAGCAGAAGCGUUCACACCGCAGCCCCUGUCGGAUUCUGGUGAAUCUGCGAAUUCUGCUGUAUGUCUC is 0.06; for UAACAGGGGGCCACAGCAGAAGCGUUCACUUCGCAGCCCCAGUCAGAUUCUGGUGAAUCUGCGAAUUCUCCUGUAUAUCUC it is 0.14; for UAACAGGGGGCCACAGCAGAAGCGUUCACUUCGCAGCCCCUGGCAGACUCUGGUGAAUCCGCGAAUUCUGCUGCAUAUCUC it is 0.04.
With UAACAGGGGGCCACAGCAGAAGCGUUCACGACGCUGCCCCUGUCAGAUUCUGGUGAAUCUGCGAAUUCUACUGUAUAUUUC, the self-cleavage is 0.08.
For the variant UAACAGGGGGCCACAGCAGAAGCGUUCACAUCGCAGCCCCUGUCAGAUCCAGGUGAUUCUGCGAAUCCUGCUGUAUAUCAC, the self-cleavage came to 0.07.
The same measure for UAACAGGGGGCCACAGCAGAAGCGUUCACAUCGCAGCCCCUGUCAGAUCCUGGUGAAUCUGCGAAUUCUGCUGUAUUUCUC: 0.39.
As for UAACAGGGGGCCACAGCAGAAGCGUUCACGACGCAGCCCCUGUCGGAUUCUGGUGAAUCUGCGAUUUCUGCUAUAUAUCUC, the self-cleavage amounted to 0.13.
UAACAGGGGGCCACAGCAGAAGCGUUCACGACGCAGCCCCUGUCGGGUUCUGGUGAAUCUGCGAAUUCUGCUGUACAUCUC: the self-cleavage stood at 0.14.
The figure for UAACAGGGGGCCACAGCAGAAGCGUUCACCUCGCAGCCCCUGUCAGAUUAUGGUGGAUCUGUUAAUUCUGCUGUAUAUCUC is 0.09; for UAACAGGGGGCCACAGCAGAAGCGUUCACGACGUAGCCCCUGUCAGAUUCUGGUGAAUCUGCGAAUUCUGCCGUAUAUCUC it is 0.15.
For UAACAGGGGGCCACAGCAGAAGCGUUCACAUCGCAGCCCCUGUCAGAUUCAGGUGAGUCUGCGAAUUCUGCUGUAUAUCUC, the self-cleavage worked out at 0.11.
In the case of UAACAGGGGGCCACAGCAGAAGCGUUCACGACGCGGCCCCUGUCAGAUUCUGGUGAAUCUGCGAAUCCUGCUGUAUGUCUC, the self-cleavage turned out to be 0.35.
The same measure for UAACAGGGGGCCACAGCAGAAGCGUUCACUUCGCAGCCCCUGUCAGAUUCUGGUGAGUCGGCGAAUUCUGCUGGAUAUCUC: 0.13; for UAACAGGGGGCCACAGCAGAAGCGUUCACAUCGCAGCCCCUGUCAGAUACUGGUGAAUCUGCGAAUUCUGCCGUAUAUCUC: 0.53; for UAACAGGGGGCCACAGCAGAAGCGUUCACCUCGCAGCCCCAGUCAGAUUCUGGUGAAUCUGCGAAUACUGCUGUAUAUCUC: 0.17.
The same measure for UAACAGGGGGCCACAGCAGAAGCGUUCACGACGCAGCCCCUGUCAGUUUCUGGUGUAUCUGCGAAUUCUGCUGUAUAUCUC: 0.09.
The same measure for UAACAGGGGGCCACAGCAGAAGCGUUCACGACGCUGCCCUCGUCAGAUUCUGGUGAAUCUGCGAUUUCUGCUGUAUAACUC: 0.13; for UAACAGGGGGCCACAGCAGAAGCGUUCACAUCGCAGCCCCUGUCAGAUUCUGGUGAAUCUGCGAAUUUUGCUGUAAAUCCC: 0.3; for UAACAGGGGGCCACAGCAGAAGCGUUCACAUCGCAGCCCCUGUCAGAUUCAGGUGAAUCCGCGAAUUCUGCUGUAUAUCUC: 0.42.
Turning to UAACAGGGGGCCACAGCAGAAGCGUUCACAUCACAGCCCCUGUCGGAUUCUGGUGAAUCAGCGAACUCUGCUGUAUAUCUC, the self-cleavage stood at 0.13.
The figure for UAACAGGGGGCCACAGCAGAAGCGUUCACGACGCUGCCCCUGUCAGAUUCUGGUGUAUCUGCGAAUUCUGCUGUAUAUCUC is 0.13.
With UAACAGGGGGCCACAGCAGAAGCGUUCACGACGCAGCCCCUGUCAGAUUCUGGUGAAUCUGCGGAUUCAGCUGUAUAUCUC, the self-cleavage amounted to 0.12.
For the variant UAACAGGGGGCCACAGCAGAAGCGUUCACUUCGCAGCCCCUGUCAGAUUCUGGAGAAUCUGCGAAUUCUCCUGUAUAUCUC, the self-cleavage came out at 0.06.
On to UAACAGGGGGCCACAGCAGAAGCGUUCACCUCGCAGCCCCUGUCAUAUUCUGGUGAUUCUGCAAAUUCUGCUGUGUAUCUC, for which the self-cleavage is 0.05.
The figure for UAACAGGGGGCCACAGCAGAAGCGUUCACGACGCAGCCCCUGUCAGUUUCUGGUGACUCAGCGUAUUCUGCUGUAUAUCUC is 0.1; for UAACAGGGGGCCACAGCAGAAGCGUUCACUUCGCAGCCUCUGUCCGAUUCUGGUGAAUCUGCGUAUUCUGCUGUAUAUCUC it is 0.07.
The same measure for UAACAGGGGGCCACAGCAGAAGCGUUCACAUCGCAGCCCCUGUCAGAUUCUGGUGAAUCUGCAAUUUCUGCUGUAUAUCUC: 0.18.
The figure for UAACAGGGGGCCACAGCAGAAGCGUUCACAGCGCAGCCCCUGCCAGAUUCUGGCGAAUCUGCGAAUUCUGCUGCAUAUCUC is 0.09.
With UAACAGGGGGCCACAGCAGAAGCGUUCACGACGCAGCCCCUGUCAGAUUCUGGUGAAUCUGCGAGUUCAGCAGUAUACCUC, the self-cleavage turned out to be 0.09.
